Measurements as given in the supplement of paper PMC3334620.
Over roughly 33,000 sequences, “E-score (-0.5 to 0.5)” has its median near -0.012; the highest 2% begin near 0.27. Some of the results follow.

The sequences below were run against T1, Vhr1 (UniProt P40522) (assay: PBM E-score (8-mer binding enrichment) (E-score (-0.5 to 0.5)); higher = stronger / more preferred TF binding; most listed sequences are background and not binding sites). Conditions: protein concentration: 200 nM; construct: GST-full length.
T1 sequence: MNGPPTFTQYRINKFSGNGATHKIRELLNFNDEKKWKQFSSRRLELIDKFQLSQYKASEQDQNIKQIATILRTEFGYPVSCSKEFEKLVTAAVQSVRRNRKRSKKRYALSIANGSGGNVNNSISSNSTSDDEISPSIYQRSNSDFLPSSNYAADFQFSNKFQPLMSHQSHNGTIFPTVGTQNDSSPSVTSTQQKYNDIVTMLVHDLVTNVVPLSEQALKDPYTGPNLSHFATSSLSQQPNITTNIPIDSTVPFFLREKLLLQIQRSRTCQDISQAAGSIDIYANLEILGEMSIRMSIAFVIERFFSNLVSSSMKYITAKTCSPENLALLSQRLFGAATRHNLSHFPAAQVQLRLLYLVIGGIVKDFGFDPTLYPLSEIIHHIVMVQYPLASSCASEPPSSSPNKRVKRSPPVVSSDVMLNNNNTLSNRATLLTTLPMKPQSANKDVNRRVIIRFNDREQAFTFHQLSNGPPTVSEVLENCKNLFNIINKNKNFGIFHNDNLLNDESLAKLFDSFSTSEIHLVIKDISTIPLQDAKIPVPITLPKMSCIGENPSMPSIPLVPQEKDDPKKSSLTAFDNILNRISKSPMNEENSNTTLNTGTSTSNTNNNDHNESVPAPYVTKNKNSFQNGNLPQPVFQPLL
Method: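 Universal 'all 10-mer' protein binding microarrays (Agilent AMADID 015681) probed with GST-tagged S. cerevisiae TFs (full-length or DBD) made by in vitro transcription/translation (PURExpress), about 100-200 nM. Bound TF was detected with fluorescent anti-GST. Each ungapped 8-mer (which stands for itself and its reverse complement) is scored by the PBM enrichment score (E-score), a modified Wilcoxon-Mann-Whitney statistic from -0.5 to +0.5, computed with the Universal PBM Analysis Suite. Scale: above 0.35 generally sequence-specific binding.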
ATATGATA was tested, and the “PBM E-score” value was 0.224.
In the case of TCAGAGCA, the “PBM E-score” value was -0.0222.
For GCACGGCA, the “PBM E-score” value was -0.167.
AAATTCCA was tested, and the “PBM E-score” value was -0.148.
GGGAGGTA was tested, and the “PBM E-score” value was 0.121.
ACTCAAAT was tested, and the “PBM E-score” value was -0.0707.
With ACAACAAC the “PBM E-score” value was 0.16.
In the case of GACTTAAC, the “PBM E-score” value was -0.185.
In the case of ACGCTGTG, the “PBM E-score” value was 0.174.
For AGGTGTCG, the “PBM E-score” value was 0.134.
In the case of CTGGCCCA, the “PBM E-score” value was -0.133.
For AGCCGCTA, the “PBM E-score” value was -0.098.
For CATCAGGA, the “PBM E-score” value was 0.166.
For AGACACCC, the “PBM E-score” value was 0.177.
With AATCAAGC the “PBM E-score” value was 0.0128.
For CAACTTAC, the “PBM E-score” value was -0.0516.
For ACGCGGAT, the “PBM E-score” value was 0.129.
ATTTCCCG was tested, and the “PBM E-score” value was 0.0115.
For TAGAGGAA, the “PBM E-score” value was -0.307.
With ATCACGCA the “PBM E-score” value was 0.176.
For AAAGCGCT, the “PBM E-score” value was -0.083.
For GTAGCGGA, the “PBM E-score” value was 0.0508.
In the case of CGTCGGGA, the “PBM E-score” value was -0.0491.
In the case of CTGGTCGC, the “PBM E-score” value was 0.105.
With ATTGGCAA the “PBM E-score” value was 0.0954.
For CGTCACTA, the “PBM E-score” value was 0.0865.
In the case of CCAATCAG, the “PBM E-score” value was -0.0885.
In the case of AGCGGCAG, the “PBM E-score” value was -0.177.
With CCGTGTTA the “PBM E-score” value was 0.152.
For ACCTTTAG, the “PBM E-score” value was -0.224.
For ACTAAGGC, the “PBM E-score” value was -0.14.
With ATGTACTA the “PBM E-score” value was 0.128.
For CCTGTTAA, the “PBM E-score” value was -0.169.
With ATAGAACA the “PBM E-score” value was -0.0271.
In the case of AAAGGTCT, the “PBM E-score” value was -0.289.
AGAGTGTA was tested, and the “PBM E-score” value was 0.0471.
For ATTGTTAA, the “PBM E-score” value was 0.0262.
For CACCGCTA, the “PBM E-score” value was -0.0928.
In the case of CTGTTAAG, the “PBM E-score” value was -0.121.
For GTCGATTA, the “PBM E-score” value was -0.0296.
For TCACGTAA, the “PBM E-score” value was -0.0451.
With CGGCCAAA the “PBM E-score” value was -0.232.
TCCATGAA was tested, and the “PBM E-score” value was 0.123.
With CGAGCAAC the “PBM E-score” value was -0.0995.
In the case of GGTTACCA, the “PBM E-score” value was 0.116.
For ACGGCCAT, the “PBM E-score” value was 0.0221.
With GCCCCCGC the “PBM E-score” value was -0.00402.
With GACGCTGA the “PBM E-score” value was 0.0711.
AACTGTGT was tested, and the “PBM E-score” value was 0.111.
With GCTTGACA the “PBM E-score” value was -0.16.
With AGCAAGCA the “PBM E-score” value was -0.0599.
CGGGAATC was tested, and the “PBM E-score” value was -0.00766.
GCTGGGCC was tested, and the “PBM E-score” value was -0.205.
In the case of TATTCACA, the “PBM E-score” value was 0.0257.
With CACTCGCG the “PBM E-score” value was 0.129.
With TAGTTTGA the “PBM E-score” value was 0.0738.
CTCGTACA was tested, and the “PBM E-score” value was 0.0426.
ACGTGTGA was tested, and the “PBM E-score” value was 0.022.
For ATAACGCC, the “PBM E-score” value was -0.0482.
For ACTGTTCG, the “PBM E-score” value was 0.03.
In the case of ATCGCGTA, the “PBM E-score” value was -0.0246.
In the case of TAAACGTA, the “PBM E-score” value was -0.115.
With AACTCTTC the “PBM E-score” value was -0.138.
In the case of AACCGGTG, the “PBM E-score” value was -0.187.
For ACCTATGG, the “PBM E-score” value was 0.0698.
With CTATCCCA the “PBM E-score” value was -0.0474.
GAGAAACC was tested, and the “PBM E-score” value was -0.0374.
With AGACGAGG the “PBM E-score” value was -0.151.
In the case of AGTAATTA, the “PBM E-score” value was 0.134.
In the case of CCTCCTTA, the “PBM E-score” value was -0.177.
CGGCCCAC was tested, and the “PBM E-score” value was -0.191.
For GGCATCGA, the “PBM E-score” value was -0.257.
CCCTCCGC was tested, and the “PBM E-score” value was -0.155.
With AATACACA the “PBM E-score” value was 0.246.
With ACTTCAGA the “PBM E-score” value was -0.0467.
With TAGCGCCA the “PBM E-score” value was -0.0874.
For CAACTGAG, the “PBM E-score” value was 0.201.
With GACAACCA the “PBM E-score” value was 0.0056.
For CGGTCAAC, the “PBM E-score” value was 0.0471.
For AGACGCCG, the “PBM E-score” value was 0.00826.
In the case of TAGGGATA, the “PBM E-score” value was -0.0231.
In the case of GAAGCCGA, the “PBM E-score” value was 0.0458.
For CTGGTTAA, the “PBM E-score” value was -0.0274.
For CCTCTTAG, the “PBM E-score” value was -0.14.
In the case of ATGTGGAA, the “PBM E-score” value was 0.0819.
For GGAATAAC, the “PBM E-score” value was -0.071.
TACAGCCA was tested, and the “PBM E-score” value was 0.0431.
In the case of TTCCACAA, the “PBM E-score” value was 0.139.
CGTAATAA was tested, and the “PBM E-score” value was 0.0802.
In the case of ACGAGGAC, the “PBM E-score” value was 0.0419.
With CGCACTAA the “PBM E-score” value was 0.156.
In the case of CGTATCGC, the “PBM E-score” value was 0.0065.
ATCGAAGA was tested, and the “PBM E-score” value was -0.0137.
With GCCCCCAC the “PBM E-score” value was -0.274.
With CTCCTCTC the “PBM E-score” value was -0.215.
In the case of ACTGACAC, the “PBM E-score” value was 0.0369.
For AAGGGAAT, the “PBM E-score” value was -0.179.
ATTCCACC was tested, and the “PBM E-score” value was 0.179.
With GAGCCGAA the “PBM E-score” value was 0.0162.
TGGCGTAA was tested, and the “PBM E-score” value was -0.212.
With CCTCAAGG the “PBM E-score” value was -0.289.
With CAAGGCAG the “PBM E-score” value was 0.0176.
With AGGCGTGA the “PBM E-score” value was 0.019.
ATGCAGGC was tested, and the “PBM E-score” value was 0.0143.
With CGATCCAC the “PBM E-score” value was 0.112.
In the case of AAAGAGGC, the “PBM E-score” value was -0.255.
For CCATCCGC, the “PBM E-score” value was 0.0427.
In the case of AAGTTTGT, the “PBM E-score” value was -0.034.
For AACCGATC, the “PBM E-score” value was 0.0252.
In the case of GTCACATA, the “PBM E-score” value was 0.261.
With CATCTCAC the “PBM E-score” value was 0.067.
CTCTCTCA was tested, and the “PBM E-score” value was -0.121.
CACACACC was tested, and the “PBM E-score” value was 0.235.
CTCCGGCC was tested, and the “PBM E-score” value was -0.237.
AAGGATTG was tested, and the “PBM E-score” value was -0.0386.
With ACATCGTG the “PBM E-score” value was 0.141.
For AGCACCAA, the “PBM E-score” value was -0.0328.
CACGCCTG was tested, and the “PBM E-score” value was -0.182.
For AAGTACCG, the “PBM E-score” value was -0.139.
In the case of CTGAACGA, the “PBM E-score” value was -0.141.
For ATGCCGTA, the “PBM E-score” value was -0.05.
In the case of CGCATTGC, the “PBM E-score” value was 0.109.
For CGGATCAC, the “PBM E-score” value was 0.198.
In the case of GCCTTACA, the “PBM E-score” value was -0.225.
AGACAGCC was tested, and the “PBM E-score” value was -0.0763.
With CCCTTTAA the “PBM E-score” value was -0.0754.
For TATACGGA, the “PBM E-score” value was 0.0337.
For AAGTTCTC, the “PBM E-score” value was -0.0694.
With AGTAAGCG the “PBM E-score” value was -0.0453.
In the case of TATGCTAA, the “PBM E-score” value was -0.0598.
In the case of CCACCGTC, the “PBM E-score” value was -0.0714.
For ACATGGGA, the “PBM E-score” value was 0.131.
With GGCTTGTA the “PBM E-score” value was 0.0426.
In the case of ATTCCTGG, the “PBM E-score” value was 0.149.
For GCGGCCAA, the “PBM E-score” value was -0.0733.
ATTACTAG was tested, and the “PBM E-score” value was -0.0784.
For GAAGGGGA, the “PBM E-score” value was -0.105.
GACCGGTC was tested, and the “PBM E-score” value was -0.225.
For GTATGTAA, the “PBM E-score” value was 0.0638.
In the case of GACCTTCC, the “PBM E-score” value was -0.134.
For CACAATTA, the “PBM E-score” value was -0.111.
For ACACGGAC, the “PBM E-score” value was -0.0486.
With CCCGTAAA the “PBM E-score” value was -0.0071.
For AGGCTCCA, the “PBM E-score” value was -0.138.
For CATATTAG, the “PBM E-score” value was -0.0339.
With GATAAGCC the “PBM E-score” value was -0.115.
CCGCTCCA was tested, and the “PBM E-score” value was -0.0108.
With ACCCACCG the “PBM E-score” value was 0.256.
With CACGCGTG the “PBM E-score” value was 0.181.
TACCCAGA was tested, and the “PBM E-score” value was 0.192.
With CCGATCAG the “PBM E-score” value was -0.0785.
With CGTAGTTA the “PBM E-score” value was 0.0682.
ATCGGGAA was tested, and the “PBM E-score” value was -0.0483.
With CCCCGTTC the “PBM E-score” value was 0.0158.
With AACCGTAC the “PBM E-score” value was -0.0106.
With CACCGAAC the “PBM E-score” value was -0.0645.
For ACGTTAAT, the “PBM E-score” value was 0.0148.
GTAATCAC was tested, and the “PBM E-score” value was 0.198.
With AGCGCACA the “PBM E-score” value was 0.00461.
In the case of CGCGCGAC, the “PBM E-score” value was 0.162.
For AAAGGGGA, the “PBM E-score” value was -0.175.
With TCCGAACA the “PBM E-score” value was -0.196.
ACACTGTG was tested, and the “PBM E-score” value was 0.252.
For ACACGCAC, the “PBM E-score” value was 0.0673.
AGTGACCA was tested, and the “PBM E-score” value was 0.151.
In the case of GGCGCGAA, the “PBM E-score” value was 0.0599.
In the case of GTGAACAC, the “PBM E-score” value was -0.0631.
In the case of ATATATTA, the “PBM E-score” value was 0.201.
In the case of TCTTAGCA, the “PBM E-score” value was -0.139.
For AGTAAGTG, the “PBM E-score” value was -0.0132.
With AACACCTA the “PBM E-score” value was 0.0665.
In the case of CACGCAAC, the “PBM E-score” value was -0.114.
